Source: the supplement of paper PMC12632987
Over roughly 4,500 sequences, “median log2 fold change of GCK-ALFA target abundance (FLAG IP / Myc IP barcode read proportion)” has its median near 0.078; the lowest 2% begin near -0.6. Some of the results follow.

B1: GBRAP_52_5858 (protein)
chain: MEEEMREIAEELLELKLAGKEEELKKRVKELVKTLSEEEILELLKELAELAKKANKEEAEAIAEVAELLADEAEKAGFDEDELSYYLAEVYAAAYKQLQK
B2: GBRAP_52_6143 (protein)
chain: SAARVEALARAIVDALVAGREEEARALLREAIRTLSLEELLALAAEAARLIAKQGPDAEELLARFLELWEEVGEEEGLDDETIDLLIATAAKTFVDEQAK
B3: GBRAP_11_2889 (protein)
chain: KKEALEKALELAKELVELLEKLLKEGVDNEELLKKAKEKAEELLKLAKEHLDPALQKDVEIIVELIEKAIEDPENREQYVKEALAAARVLAGNLELELEE
B4: GBRAP_160_4571 (protein)
chain: SAAIEALIKEIREEVEEAVEMIEGQDFAERRAIVRVTAGNILLLLDENPEVSEATLEEADAIFDALLATIDANPDLTAAEIQALLREAAERVIALLEKES
B5: GBRAP_125_2991 (protein)
chain: SEEEVLAALAEVLRALGFDDEDVEEAVRLARRHGIRGTLYAMMAALGWDEAADAVAQLTEEQARAVVLEVAAALRANPGLSPEEVAALILATARAALAAA
B6: GBRAP_14_3809 (protein)
chain: KEELKKEIEEILEELRRELVELLGLDEERVTALVDEAIEKIKEAIETLEDPEEEIEKIFDELRAKVAELAAALGADVEAGARALVDDAEYEVDEAIEKYK
B7: GBRAP_153_3949 (protein)
chain: MEEEEKLKKEALELIEQIKKSNGDPELIKKFAELFTKLNEENKKEIFKELESLPEELQKKIVKTLIKEAGISPEEIIEWIVGTSEEFEAAVLEAIVEAQK
B8: GBRAP_80_6826 (protein)
chain: MEEELEKNIEEIEKLDKEIAEIVKEIVELAKELGVPLEVLLRYTKAILELLKKDKEKALELAKKTLEEVKKAKEKGNKDEVIAILAEAESDALLEVEELE
B9: GBRAP_160_4244 (protein)
chain: SERLEKIRRDIREEAEVALEALAEVPPSQWPAILRAMAGDIVQIVIEDPSMSDETVERVDELAEEMVARLEAARDASPEEIRALLDEGVERIIELIEEEL
B10: GBRAP_128_3440 (protein)
chain: MQEELLKEALELLDKIVESDVEEAAELAKKLAELLGKLDEESRDKVVEYFEEKAKELTEEKLEAVSDALREQVPSLDPLTANAVNEMMVILGERILELEE
B11: GBRAP_83_6896 (protein)
chain: AEEITVAADGDHIEEAFEAAIDLSKEYGYKVSIEVIVTPEDVETLLKAFEKLAKEGINVELEVIAEGMTEEEIEELKKKLEEIAKKYGVDVKIEVIKKEP
B12: GBRAP_78_6722 (protein)
chain: EVEELIDKALEKLDEAAKLSLQLDEDTQAELLDLLSDAMTLLVEAEENGFDLKLLEEALKLVEEAIKLAKKLDSETAKKILKLLEEAKKYLEKAIKLLKE
B13: GBRAP_35_5570 (protein)
chain: EFDEETTEMLIATIEDLTLAVPDMPLDQAVAAAKALAETAEELVKELKDNPELLKRIAEALKKLLEAVEKHYGDSPEAKEAAARIKKVIEEALKLAKEAE
B14: GBRAP_125_3099 (protein)
chain: EEEELLENLKEIALALGFSEEDAEELARLAREGSLKQTLVALFLAEGAEEVAELVAKLTEEQAKQLVKELAKWLKENPNASKEEVIEKAKEIAEKLLAES
B15: GBRAP_160_3986 (protein)
chain: SETLEKLKEFIDEETEETIELIKGESHEERVIIIEGGFGEIIMELMSEESVSDEAEDEIAEIGDETVNTIKENPDLTYEEIVELIEEAREKMKEILEKAF
B16: GBRAP_160_4298 (protein)
chain: SPELDALKASIKEITEEAIKMIEGESRENQVAIAKVALGEILLEAFENPLVSDETEDQIGAITDAAEATLDANPDLSLEEIKALLKAATDQILALIDTLS
B17: GBRAP_184_5097 (protein)
chain: KTLERRIVAETLEEAEAQLDAAIDEAAAQGASLLLLLEAEGISEEEIVALVERLGERAAEKGVPAVTLGIDQLLSEETIDKVIEVADKHGIRLVVALPEE
B18: GBRAP_184_5321 (protein)
chain: EVKEVVIEVETEEEAKEKLEEVEKEIKESGKKYRVYIFVKNPTKELLKTIAEKIKEMKEKGIDAEFIVVTLDPVDEELADYAVKLFDEAGARIVLALEDE
B19: GBRAP_11_2713 (protein)
chain: KKELLLEFAEKAEELAKRVKKLIKEGPKEEELKKLAEEAKKLAEEAKKAGLPESIVELVKLAAELLKKAIEDPENVEEYLKEAAAALRVAAGQLLLEAEE
B20: GBRAP_139_3752 (protein)
chain: SELEKKIEEAKKLTEKIPEDPEGSIKALADLLVSVDDEEAEKIAKAAAEVAKKWPFEEFEAYFDKLIDTLLNEYNDEDRADIVEAERNRALAQIAVKEEE
B21: GBRAP_184_5278 (protein)
chain: MVIHVELEAESGEEAIAQVNKAAEEARAKGAKLKLTLLLENASEEEIIALFDKLKELKDEGVIESATVGVDSEDDEEKIDRLIKAADEAGVKLVIAIEEE
B22: GBRAP_78_6723 (protein)
chain: EVEELVEKALEKLDEAAKLSLQLPEDDRAELLDLLSDAMTLLVEAEEKGFDLKLLKEALKLVKEALKLAKKLDSETAKKIAKLLEEAIKLLEEAIKLLEK
B23: GBRAP_160_3993 (protein)
chain: SEKLEKLKKEIKELLEEALKLMTGETPENRLAIARVTSGQILLTLEESELVSDETIEEIDKILDEFVATVAANPNMTDEELKALLEETLKKIFEVIEKNI
B24: GBRAP_9_7181 (protein)
chain: EEEAKKKILKVAEEEGERAIELAPEDKKPIMKELIDKMLKELKAAIADKSKTLEEILELLEEKTDEIVDEMKKVVDEKTYKLIEAELGTAILEAEEIIEE
B25: GBRAP_74_6503 (protein)
chain: QEEVLERAKNASTAEEVIELLNYAVENIDKLDQETLDAIANRAAEFINKLMAEGKYEELKALVEAAEKLLVALPGERLNHATAALIAAVLAAEKALAAHA
B26: GBRAP_52_6249 (protein)
chain: MAARRRAAAQEVLELVNAGDLEGARALLREIAATWDEEELEAFIDEFAALARTQPAEQLEKVWLAAELAEEVLEEEGRSEVLVDLLRARVAAAIVERLQA
B27: GBRAP_90_7012 (protein)
chain: SATEELVERLKHEKEVVLEEMDLGVVSAKDDEELEKAMEILDKYNAEAATAILAVDELEPIIGKERAEKYKKKIEEAGNDKEKIKELTKEAFEEAIEIAK
B28: GBRAP_52_6092 (protein)
chain: MEEELEKMAEEIFNALKAGDLEKVTELLKKLVEEKSDEEVLKTIELTAELIAKLSPEEREKALDIFLEALDRVAEETGKEELMDDAAARIAAIAYEAELK
B29: GBRAP_52_6255 (protein)
chain: MRERARAVVEEIYALVRAGDLEAARALAERFVRESNEEELELFVDEFRALVLAADPADLAALETAVDILSEALEKAGRPEELVSLLEAEGYAAIYELEQR

The binders below were run against GABARAP, O95166 (assay: median log2 fold change of GCK-ALFA target abundance (FLAG IP / Myc IP barcode read proportion) (log2 ratio); each designed protein is fused to an ALFA-tag nanobody in HEK293 cells to bring the named protein to FLAG-tagged glucokinase (GCK); Myc marks an untargeted standard; higher = target protein stabilised (more abundant)). Conditions: target protein: 3xFLAG-MCP-GCK-ALFA reporter; HEK293 landing pad (RPLP).
Method in brief: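 HEK293 landing-pad cells received a recombined binder library fused to the ALFA nanobody and were induced with 2 μg mL^−1 doxycycline, then transfected with a plasmid encoding a FLAG-tagged target and a Myc-tagged standard. Lysates were collected after 48 h for anti-FLAG and anti-Myc immunoprecipitation, and the circular RNA barcodes were reverse transcribed, amplified and sequenced. Target abundance for each binder is the median log2 ratio of FLAG to Myc barcode read proportions. Barcodes had to reach a proportion of at least 10^−7 in both replicates, each binder needed at least 3 barcodes per replicate, a pseudocount of 10^−6 was applied, and the two replicates were pooled.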

Chain of GABARAP, O95166 (O95166 whole entry, the tested form may be a part): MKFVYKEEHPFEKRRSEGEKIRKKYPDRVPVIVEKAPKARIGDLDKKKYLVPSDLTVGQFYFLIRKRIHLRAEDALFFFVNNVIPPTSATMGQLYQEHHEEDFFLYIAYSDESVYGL

| Binder | median log2 fold change |
| --- | --- |
| B1 | -0.144 |
| B2 | -0.35 |
| B3 | 0.0469 |
| B4 | 0.096 |
| B5 | -0.179 |
| B6 | 0.0997 |
| B7 | -0.0177 |
| B8 | 0.133 |
| B9 | -0.0641 |
| B10 | 0.147 |
| B11 | 0.047 |
| B12 | 0.148 |
| B13 | 0.228 |
| B14 | -0.11 |
| B15 | -0.0963 |
| B16 | -0.376 |
| B17 | -0.0834 |
| B18 | -0.167 |
| B19 | 0.0717 |
| B20 | 0.0429 |
| B21 | 0.158 |
| B22 | 0.237 |
| B23 | -0.126 |
| B24 | 0.159 |
| B25 | 0.165 |
| B26 | -0.323 |
| B27 | 0.148 |
| B28 | 0.106 |
| B29 | -0.0883 |
